The chains are these.
T1: UNK ZnF1-3 (human, UniProt Q9C0B0 31-174)
T1 sequence: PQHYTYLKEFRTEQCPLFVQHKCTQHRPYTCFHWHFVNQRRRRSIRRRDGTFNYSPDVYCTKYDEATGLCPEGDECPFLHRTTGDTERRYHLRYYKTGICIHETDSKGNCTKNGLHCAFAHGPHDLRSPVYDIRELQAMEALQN

B1: chr3:88342849:88342850:+_ENSMUSG00000074480_ENSMUST00000172699|mus_hu|FALSE|FALSE (ssRNA)
RNA: GGGAGUUCUACAGUCCGACGAUCCUUUGUGGGUAAAGAGUGGAGAGGGGGAGGGGGACGACAGACAGACAUCCCUUCUUCCCACCCCCCUCCCCACCUGCCCCCCGGCAACCGAGGGUGCCCAUUUGGUUUGGUUUCUAUUGUCAACAGAGGAUUGAGCAUCA
B2: chr7:127978362:127978363:-_ENSG00000106344_ENST00000459726|hu_mus|FALSE|FALSE (ssRNA)
RNA: GGGAGUUCUACAGUCCGACGAUCUAUCUCCUUCAUAUUCGCGCCUUUGAGAGCUUUUCCUGCUUCAAGGAGGUUUUUGAACUGAACAAAAGCAAAACCACGCAUCUUUCCAUCUGGCUUCUUUGGGAUAUUCACUUCAAGAACCAACAGAGGAUUGAGCAUCA
B3: chr1:39494447:39494448:+_ENSG00000168653_ENST00000372967|hu_mus|hu_hu_hu_mus_False|58_78 (ssRNA)
RNA: GGGAGUUCUACAGUCCGACGAUCGCACCGAGCGGCGUUCUUAUAGGGCUGUUCUGCACUCUGGAUUAUAAAGUGCCGAUCUAUGUUGAUGCCCAGCUUUUUCUGUAUGUCAAGGAAAGGCAUGGCUCUGCAGUGCCCUUGUCACAACAGAGGAUUGAGCAUCA
B4: chr14:67421766:67421767:-_ENSMUSG00000022048_ENSMUST00000022629|mus_mus|FALSE|FALSE (ssRNA)
RNA: GGGAGUUCUACAGUCCGACGAUCACAUUUUGCUUUAUUGGGUGUUCCGUGGUAAUAUAACACAGACUUCUUAAGGAAUAAUAAACACGAGACUUGUAUUUUACCAUAAUUAUUUUGCCAUUAAGACAGUGGUUACAAAAAAUACAACAGAGGAUUGAGCAUCA
B5: chrX:12717583:12717584:+_ENSMUSG00000031010_ENSMUST00000089302|mus_mus|FALSE|FALSE (ssRNA)
RNA: GGGAGUUCUACAGUCCGACGAUCUUCAGCAUUGGGCACAUUAAUGUUACUGUUGUAGGCGUAAUUAAGAAGAUGUCUUAAAAGAGUAAAGUAGUCGCCUGAGUGUUUAGCCCUCUCUCUGGCUGUGCUCCCCAAAACAGUAAACAACAGAGGAUUGAGCAUCA
B6: chr1:66480114:66480115:+_ENSMUSG00000015222_ENSMUST00000024639|mus_hu|mus_mus_mus_hu_True|48_58 (ssRNA)
RNA: GGGAGUUCUACAGUCCGACGAUCUGGCCUGUGGCGGAUGUUCUUCAGAGAGCCACAUUUGGAUGUCACAUGGCUUAAGUCUAUCUUCUUAGUAACAAUUUGUACCUGCCCCCCUUUAGGCUGGUAUUUGAUGUUGUCUGUUGACAACAGAGGAUUGAGCAUCA
B7: 8451679_8452034_1159_CDS_ENSG00000133026_ENST00000269243|human|control|control (ssRNA)
RNA: GGGAGUUCUACAGUCCGACGAUCAGAAAUAUUUCCAAACUGUAGCACUGAAGAUACUACUUUAAGCAUUGACAGAAUCUCUUCAUGGGAGAAGCCCAUUAUGUGCAUUGCUUCCAUGGUCUCCUGGAAAUUAUCUUUGUCUUGCAACAGAGGAUUGAGCAUCA
B8: chr8:133025090:133025091:+_ENSG00000132294_ENST00000254624|hu_mus|FALSE|FALSE (ssRNA)
RNA: GGGAGUUCUACAGUCCGACGAUCGAAAAGACUAACUGCAAUGGUUUUCCUUUGCAUGCAAAGCAUGCCUUUUAAAAUCACUAAGAAACACAACAUUUUGUACAGCAAAGCUUGUGUUCUGCAUGAAUGCAAGUGAAUAUAUAUCAACAGAGGAUUGAGCAUCA
B9: chr8:95500983:95500984:-_ENSG00000164944_ENST00000437199|hu_hu|hu_hu_hu_mus_True|1_18 (ssRNA)
RNA: GGGAGUUCUACAGUCCGACGAUCAGAACACAUCUAUCGAGUAAAGGACCGUACAUGACGGCCUCUACCACUGCCUCCACUAACAAACUUUCCUCUCGAGCCUCCACUGCCGCUAUUUUGCACUAGCCAGGACGGUCCCAAGUCCAACAGAGGAUUGAGCAUCA
B10: chr3:179342097:179342098:+_ENSG00000136521_ENST00000259037|hu_hu|motif|central (ssRNA)
RNA: GGGAGUUCUACAGUCCGACGAUCCUGGUGCUUAACAUUAUUAGACUUCUAUAACUUCCAUUUGUCAGGUAAAUAAAACACGGACCUUUCAAAGUUGCUACAAUUUUAGGAGUUCACAAAUUCCUAUUUCUCCAGUUUUUAUUACAACAGAGGAUUGAGCAUCA
B11: chr17:64801638:64801639:+_ENSG00000154229_ENST00000413366|hu_mus|hu_hu_hu_mus_False|68_108 (ssRNA)
RNA: GGGAGUUCUACAGUCCGACGAUCUAUAAAUACAUAUACAUAUGUACACAUAUAUAGUAAAACCCUAAUCUAUCACGUAAAGUAGCCAUUCAUUUUUAAAAUUACAUCUACAUUAAAAAAUUAAUAUAUCUGAUAGAGUGCCAGCAACAGAGGAUUGAGCAUCA
B12: chr10:115881139:115881140:-_ENSG00000165813_ENST00000369287|hu_mus|FALSE|FALSE (ssRNA)
RNA: GGGAGUUCUACAGUCCGACGAUCUAUAUCCUUACCAGGGCAACAUGUGUCACAUUUACAGUAUUGAUAGUUUCAAGGGGGGGGUUUCUUCUUCCAAAUUUAAGACUAAAUUUUCUUGUAAAAAUAUUUAGAAAAUAACCAACACAACAGAGGAUUGAGCAUCA
B13: 77717743_77745835_808_CDS_ENSG00000085365_ENST00000538629|human|control|control (ssRNA)
RNA: GGGAGUUCUACAGUCCGACGAUCUGCAGCUUGGAGUACAUGUACAGCAAACUGACAAAUAUAGACGAAGAAGAAUACAAAGAAUCUAAAUGAACUGUCACUCCUGAAAGCUCCAUAAAGUGGUCUGUACCAACAGACAAAUGACAACAGAGGAUUGAGCAUCA
B14: chr20:21312971:21312972:+_ENSG00000088930_ENST00000377191|hu_hu|FALSE|FALSE (ssRNA)
RNA: GGGAGUUCUACAGUCCGACGAUCUCCAAACUGAUUACAAAGACCACAUGGUUUGGGCUUGUUUGGUUUGAAUUCUUCUCUAAUAAUGGUAAAGUUCGGUUCAUGUGUGGCAAGGCCAAGCAUAAUGAGAUCAGCAUCUGCUCCCAACAGAGGAUUGAGCAUCA
B15: chr4:115894766:115894767:+_ENSMUSG00000028698_ENSMUST00000030464|mus_hu|mus_mus_mus_hu_True|38_58 (ssRNA)
RNA: GGGAGUUCUACAGUCCGACGAUCUUCCACACGGAAAUGUACUUCGGGUUUUCCAACGGCCAGUACCAGUCCGGCCAACUACUAGGAACAGGGUCCUGUCCUCCUCUCCUACAGAACACAACAAAAUGCCCCCGAACUUUCAAGCAACAGAGGAUUGAGCAUCA
B16: 13605205_13605325_3394_CDS_ENSG00000038219_ENST00000040738|human|control|control (ssRNA)
RNA: GGGAGUUCUACAGUCCGACGAUCUUUUGGUCUCUGAAGGGAGGAACCGCUGGGAGUGCUCAAAGUGUUUGCUGCUAAUUUUUCUUCUCCUUUGGCCAUUUCUUGUGACAAGCUUCCUCUCCGAUUUUCGCACAACCUUCUACUCAACAGAGGAUUGAGCAUCA
B17: 139357434_139357554_4811_CDS_ENSG00000148396_ENST00000313050|human|control|control (ssRNA)
RNA: GGGAGUUCUACAGUCCGACGAUCCUGGGCCUCACCAGACUCCUCCUCUUCCACCUGCUCCACUGCCUCAUUCGUGAAAUCAAUCAGGUUUGCUUCAUUGGGCGACUUCCCAGGAAGCCACACUGUUCUGUGGUCUCGUAACAGCAACAGAGGAUUGAGCAUCA
B18: chr5:64648305:64648306:+_ENSMUSG00000029174_ENSMUST00000119756|mus_mus|FALSE|FALSE (ssRNA)
RNA: GGGAGUUCUACAGUCCGACGAUCGGGCUGAACCACAUUGUGCCCACCGAUGAGGUGGUUCUCUAUGUCAUUGUCAAAGGAGCUAAAGGUGCUACUGCGGAGGCUAGCGUCCUGGAACUCCUUCCUGAAGGCCAGCGAGCGCAGCAACAGAGGAUUGAGCAUCA
B19: 71105547_71106059_2137_CDS_ENSMUSG00000031391_ENSMUST00000102871|mouse|control|control (ssRNA)
RNA: GGGAGUUCUACAGUCCGACGAUCGUCAUACUUCUCAAUGGGAGAGUUGUGGUCUUCAGCAGGGCUCCAAGACAAGUGCACCUGGCUCUGCUUCAGCAGGUGGCGGUCGGACAGCUCCAGGUGAGGCACUGGCCCAGGGCUCCCCAACAGAGGAUUGAGCAUCA
B20: chr13:14287670:14287671:+_ENSMUSG00000039219_ENSMUST00000039538|mus_mus|FALSE|FALSE (ssRNA)
RNA: GGGAGUUCUACAGUCCGACGAUCAGCAGCACUUUCUCUCUCUUUCUUCUUUAAACGUUUUCUCCUCCUAUCAAUGGAAGCUACUUCAGAUUUUAAAGACAGAUAAUGCUUUCUGAUUUCUUGCAAUUUUUCUUGAAGAAUUGACAACAGAGGAUUGAGCAUCA
B21: chr16:94690093:94690094:+_ENSMUSG00000040785_ENSMUST00000117648|mus_hu|mus_mus_mus_hu_True|98_98 (ssRNA)
RNA: GGGAGUUCUACAGUCCGACGAUCGGGCUGGGAUGACAGCAGACAGCCCUCGAUUCCAGGGGGAAAAAGUCUUAGUCGAUACUAAUUAAAAAGUGUUAAUGAUUUUUGAAAAUCAGAUUACAUCUAUAAAAGAUGAAAAGCAAACAACAGAGGAUUGAGCAUCA
B22: chr21:34923711:34923712:+_ENSG00000159140_ENST00000381679|hu_mus|motif|central (ssRNA)
RNA: GGGAGUUCUACAGUCCGACGAUCCAUCUGAGAAUCCAUAGUGUUGGAUGCUAGCAUCUGGGAGUCCAUGGUAUUGGAUGCGGACAUAUGGGUCUCCAUGGUGUUAGAAGCUAGCAUAUGGGAUUCUUGGGCCAUCAAGGGGUCCAACAGAGGAUUGAGCAUCA

This is one part of the list.

The assay deals with T1, UNK ZnF1-3. In words: nsRBNS (natural sequence RNA bind-n-seq); RBNS binding buffer (assumed for nsRBNS): 25 mM Tris pH 7.5, 150 mM KCl, 3 mM MgCl2, 0.01% Triton X-100, 500 ug/ml BSA, 20 U/ml SUPERase-In, 4 C; UNK is unkempt and MSI1 is Musashi-1; names of the RNAs are library labels; protein concentration not given here; high values mean tight binding.
As for B1, the binding signal turned out to be 0.464 enrichment R.
To B2 belongs 1.16 enrichment R; to B3, 0.733 enrichment R.
For the molecule B4, the binding signal turned out to be 0.931 enrichment R.
On to B5, for which the binding signal was 1.08 enrichment R.
To B6 belongs 0.445 enrichment R; to B7, 0.805 enrichment R.
To B8 belongs 0.481 enrichment R; to B9, 0.861 enrichment R; to B10, 0.679 enrichment R.
The molecule B11 displayed a binding signal of 1.22 enrichment R.
To B12 belongs 1.82 enrichment R.
To B13 belongs 0.964 enrichment R.
The molecule B14 displayed a binding signal of 0.835 enrichment R.
Regarding B15, the binding signal stood at 0.954 enrichment R.
The result for B16 reads 0.611 enrichment R.
Molecule B17 yielded a binding signal of 0.654 enrichment R.
The result for B18 reads 0.544 enrichment R; that for B19, 0.684 enrichment R; that for B20, 0.932 enrichment R.
The result for B21 reads 1.5 enrichment R; that for B22, 1.06 enrichment R.

Values taken from PMC12136788.
